In all, about 44,000 compounds went through this assay and about 340 (0.77%) were called active. Another 5% or so got no clear call; they are omitted. Calls follow the shape of the dose curve; as a rule, active = well fitted inhibition curve with a large enough effect; inconclusive = small, poorly fitted or top-dose-only effect; inactive = flat fitted curve, though single readings scatter. Some of the results follow.
test: Acumen qHTS Assay for Inhibitors of the mTORC1 Signaling Pathway in MEF (Tsc2-/-, p53-/-) Cells: Sytravon; settings: phospho-rpS6 immunofluorescence/PI, 24 h; series mostly up to 38.3 µM; activity change, negative = inhibition: at the top concentration;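 also: plate controls were DMSO for no effect and rapamycin for full effect; nearly all actives have a fitted effect of over 50% in size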
Method in brief: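 Immunofluorescence of rpS6 phosphorylation in Tsc2-/-, p53-/- MEFs after 24 h compound exposure, normalized to propidium iodide signal. Activity is expressed as % positive cells, thresholded with 7.5 nM rapamycin.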

Activity change, negative = inhibition, inactive:
Cc1ccccc1CN1CCCN(CC(=O)Nc2c(C)cccc2C)S1(=O)=O 7.49%
O=C(NCCc1ccccc1)c1cc(Sc2ccc(F)cc2F)nc2ccccc12 11.1%
COc1ccccc1N1CCN(C(CNC(=O)C(=O)NCCc2ccccc2)c2cccnc2)CC1 (stereo unspecified) 2.89%
COc1ccc(NS(=O)(=O)c2ccc3[nH]c4c(c3c2)CCCCCC4)cc1 -39.6%
Cn1c(=O)c2c(nc(SCC(=O)Nc3ccc(F)cc3)n2Cc2ccccc2)n(C)c1=O -9.34%
CCC(C(=O)Nc1ccc(C(C)=O)cc1)n1c(C)c2cnn(-c3ccccc3)c(=O)c2c1C (stereo unspecified) -3.28%
CCOc1cc(C2c3c(-c4ccccc4O)n[nH]c3C(=O)N2CCc2ccccc2)ccc1O (stereo unspecified) 6.22%
CNC(=O)COc1ccc(Nc2nnc(-c3ccc(C)c(S(=O)(=O)NC(C)(C)C)c3)c3ccccc23)cc1 21.4%
COc1ccc(-c2cc(C(F)(F)F)nc(SCCC(=O)Nc3c(C)cccc3C)n2)cc1 -2.47%
COc1cccc(-c2ccc3c(N)c(C(=O)Nc4ccc(C)c(F)c4)sc3n2)c1 -2.57%
COc1cc(NC(=O)Cn2cc(S(=O)(=O)c3ccccc3)c(=O)c3ccccc32)cc(OC)c1 -11.7%
CCc1ccc(C2c3c(oc4ccc(C)cc4c3=O)C(=O)N2c2nc(C)c(C)s2)cc1 (stereo unspecified) 9.99%
O=C(NCC12CC3CC(CC(C3)C1)C2)c1cc2nc(-c3ccc(F)cc3)cc(C(F)(F)F)n2n1 2.61%
O=C(Nc1ccc(F)cc1F)c1ccc(-n2cnnc2)cc1 -6.41%
COc1ccc(-c2onc(C)c2C)cc1S(=O)(=O)NC1CCC(C)CC1 (stereo unspecified) -7.53%
Cc1cc(-n2c(C)nc3ccccc3c2=O)ccc1NC(=O)c1cccc([N+](=O)[O-])c1 -3.23%
Cc1cccc(NC(=O)CSc2cc(C)c3ccccc3n2)c1 2.3%
CC(C)CNC(=O)C1=CC(c2ccc3c(c2)OCO3)=NS(=O)(=O)N1C 2.07%
Cc1ccc(Cn2c(CNC(=O)c3ccccc3Br)nc3cccnc32)cc1 2.02%
CCc1ccccc1NC(=O)Cc1c(C(=O)O)[nH]c2ccc(Cl)cc12 -2.74%
COc1ccc(N2CCN(C(=O)Nc3cccc(C(F)(F)F)c3)CC2)cc1 -6.76%
Cc1ccc(-n2c(=O)c3oc4ccccc4c3n(CC(=O)Nc3ccccc3)c2=O)cc1C 2.56%
Oc1c(C(c2ccccc2)N2CCN(c3ccccc3)CC2)sc2nc(-c3ccco3)nn12 (stereo unspecified) 1.14%
CCOC(=O)c1c(NC(=O)c2cc(-c3ccc(OC)cc3)on2)sc(C)c1C -1.09%
O=C(NCCc1ccccc1)C(=O)Nc1cccc(Br)c1 0.889%
Cn1c(CCNC(=O)c2ccco2)nc2cc(NC(=O)COc3ccc(Cl)cc3)ccc21 -18.9%
O=C(CSc1nc(=O)[nH]c2c1CCC2)NCc1ccccc1 -10.7%
Cc1ccc(C(=O)COC(=O)CCC(=O)Nc2ccc(Oc3ccccc3)cc2)cc1C 2.71%
Cc1ccccc1C(=O)Nc1nnc(S(=O)(=O)N2CCCCCC2)s1 9.42%
COC(=O)CC1Oc2ccccc2-n2cc(-c3ccc(Cl)cc3)nc21 (stereo unspecified) 7.6%
COc1ccc(CNC(=O)Cc2csc3nc(-c4ccc(C)cc4)cn23)cc1 -4.42%
Cc1ccc(Cl)cc1N1CCN(C(=O)C2CCN(Cc3nc(-c4cccc(Cl)c4)oc3C)CC2)CC1 1.68%
CCc1nn2c(=O)cc(COC(=O)C(c3ccccc3)c3ccccc3)nc2s1 -7.42%
Cc1cccc(-c2nc(SCC(=O)Nc3ccc4c(c3)OCCO4)c(-c3ccccc3)[nH]2)c1 -15.9%
Cc1cc(C)cc(N(CC(=O)NCc2ccccc2Cl)S(=O)(=O)c2c(C)noc2C)c1 -3.82%
COc1ccc(-n2nc(C(=O)NCCc3cccc(C)c3)c3c4ccccc4n(C)c3c2=O)cc1Cl 0.444%
CCOC(=O)c1ccc(Nc2cc(-c3ccccc3)nc(C)n2)cc1 -0.325%
CCOC(=O)Cn1c(=O)n(-c2ccccc2OC)c2nc(-c3ccccc3C)nc(C(N)=O)c21 0%
O=C(COc1ccccc1)Nc1ccccc1C(=O)OCc1cc(=O)n2nc(C3CC3)sc2n1 6.68%
CCOCCc1nn2c(=O)cc(COC(=O)C(CC)c3ccccc3)nc2s1 (stereo unspecified) 1.42%
COc1ccc(NC(=O)CCn2cccn2)cc1OC -1.44%
Cc1nnc(N2CCN(c3ccccc3F)CC2)c2c1nnn2Cc1ccccc1 -0.393%
CCOc1ccc(NC(=O)CC2C(=O)N(c3cccc(C)c3)C(=O)N2Cc2cccnc2)cc1 (stereo unspecified) -0.407%
CCOc1ccc(NC(=O)Cn2c(=O)n(CCC(=O)NCCc3ccccc3)c(=O)c3ccccc32)cc1 -2.49%
CCCn1cc(S(=O)(=O)c2ccc(CC)cc2)c(=O)c2ccccc21 -7.58%
Cc1ccc(Cn2c(=O)n(Cc3ccccc3Cl)c(=O)c3ccccc32)cc1 2.03%
CCCCc1nn2c(=O)cc(COC(=O)c3ccc(NC(=O)C4CCCCC4)cc3)nc2s1 0.759%
Cc1ccc2occ(-c3cc(-c4ccc(Cl)cc4)nc4c3COc3ccccc3-4)c(=O)c2c1 0.921%
Cc1ccc(N(C)C(=O)C2CCCN(c3ncnc4c3nc3n4CCCCC3)C2)cc1C (stereo unspecified) -8.36%
Cc1cccc(N2CCN(C3(c4ccccc4)C(=O)c4ccccc4C3=O)CC2C)c1 (stereo unspecified) -7.11%
COc1ccccc1CNC(=O)c1cnn2c(C)c(Cc3ccc(F)cc3)c(C)nc12 15.3%
Cc1ccc(C(c2sc3nc(-c4ccco4)nn3c2O)N2CCN(Cc3ccccc3)CC2)cc1 (stereo unspecified) 0.54%
COc1cccc(C2CC(=O)Nc3c2c(=O)nc2c(C)cccn32)c1OC (stereo unspecified) -5.32%
Cc1ccc(-c2nc3cc(Cl)ccc3o2)cc1NC(=O)COc1ccc(F)cc1 1.94%
CCOC(=O)c1ccc(NC(=O)CN2C(=O)COc3ccc(Cl)cc32)cc1 -5.04%
CC1=C(C(=O)OC2CCCC2)C(c2ccccc2Cl)CC(=O)N1 (stereo unspecified) 3.1%
Cc1c(C(=O)N2CCC(C)CC2)c(S(=O)(=O)N2CCN(c3ccc(Cl)cc3)CC2)c(C)n1C 11.6%
CCOc1ccccc1NC(=O)Cn1nnc(C(=O)Nc2ccc(C)c(C)c2)c1N 1.56%
Cn1nccc1C(=O)NCc1ccc2c(c1)CCN2C(=O)c1ccccc1 -15%
Cc1ccc(Cl)cc1N1CCN(C(=O)C2CCN(Cc3nc(-c4ccc(Cl)cc4)oc3C)CC2)CC1 -8.49%
CC(C)(C)OC(=O)N1CCC(c2c(C(=O)NC3CCCCC3)cnn2-c2cccc(Cl)c2)CC1 0%

Reference: PubChem BioAssay AID493208 (National Center for Advancing Translational Sciences (NCATS), 2011)
